The supplement of paper PMC3334620
The full ranking holds about 33,000 sequences; the median of “E-score (-0.5 to 0.5)” is about -0.054, and the highest 2% start at about 0.39. The list shows a part of the results.

Target: Ylr278c (UniProt Q05854)
Assay: PBM E-score (8-mer binding enrichment) (E-score (-0.5 to 0.5)); higher = stronger / more preferred TF binding; most listed sequences are background and not binding sites
Settings: protein concentration: 200 nM; construct: GST-DNA-binding domain
How it was run: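 The E-score, a modified Wilcoxon-Mann-Whitney statistic, was computed by the Universal PBM Analysis Suite for every ungapped eight-base word pooled with its reverse complement. Scans behind it were normalised with masliner after bound GST-tagged yeast transcription factors were detected with fluorescent anti-GST. The proteins, at about 100-200 nM, had been applied to universal all-10-mer Agilent arrays made double-stranded by primer extension.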

Going from AGCGTGGG to ACATCATA, the “PBM E-score” value rises from -0.254 to -0.0593.

Going from CCATCCCC to CACATGCG, the “PBM E-score” value falls from 0.156 to 0.111.

First: CTCTTAGA
Second: TCGTCACA
The “PBM E-score” value of the first is lower: -0.168 for the first, -0.105 for the second.

Going from AGAAAAAC to CCGGTCCC, the “PBM E-score” value rises from 0.0493 to 0.355.

Going from ATTACGAG to GTAACGAC, the “PBM E-score” value rises from -0.0563 to 0.114.

Compared with TACCAAAA, CATTCTTC is higher in “PBM E-score” value: -0.112 for the first, 0.0143 for the second.

Going from CACTAGCA to AGATACGA, the “PBM E-score” value rises from -0.317 to -0.0945.

Compared with ATGGGCTG, TCGGCCAA is higher in “PBM E-score” value: -0.205 for the first, 0.135 for the second.

First: CGAATGGC
Second: CAGGGACG
The “PBM E-score” value of the first is higher: 0.189 for the first, -0.203 for the second.

First: CAGCCCAA
Second: CCCACTGC
The “PBM E-score” value of the first is higher: -0.0577 for the first, -0.0779 for the second.

Compared with GGCCACGA, TAGCTCCA is lower in “PBM E-score” value: 0.0243 for the first, -0.104 for the second.

First: AGTGGCGG
Second: CGAACCGA
The “PBM E-score” value of the first is higher: 0.231 for the first, 0.109 for the second.

Compared with TCGTGCCA, CCACTTTC is higher in “PBM E-score” value: -0.159 for the first, -0.136 for the second.

First: AATCACCA
Second: ACAGGCCC
The “PBM E-score” value of the first is higher: 0.0335 for the first, -0.189 for the second.

First: AACTAAAT
Second: GCTGGCCC
The “PBM E-score” value of the first is lower: -0.0699 for the first, -0.0263 for the second.

Compared with CTTTACAC, AGATATGC is lower in “PBM E-score” value: 0.022 for the first, -0.00585 for the second.

First: AAGCGTCC
Second: CAGCAGAG
The “PBM E-score” value of the first is lower: -0.275 for the first, -0.234 for the second.

Compared with AAGGTACA, AAAAGTCA is higher in “PBM E-score” value: -0.244 for the first, -0.157 for the second.

Compared with CGCTAAAG, ACTTGTGC is higher in “PBM E-score” value: -0.0186 for the first, 0.00801 for the second.

Compared with CAAAGAGA, AAATCCTC is higher in “PBM E-score” value: -0.174 for the first, -0.0805 for the second.

First: ATAACTCC
Second: TCGTTGAA
The “PBM E-score” value of the first is higher: 0.378 for the first, -0.196 for the second.

First: CATATACA
Second: CTAGGTAC
The “PBM E-score” value of the first is higher: -0.0818 for the first, -0.176 for the second.

Compared with ACCGAGCT, GGATGCCC is higher in “PBM E-score” value: 0.0592 for the first, 0.0741 for the second.

First: ATGGTCAA
Second: CGCAGACA
The “PBM E-score” value of the first is lower: -0.206 for the first, -0.00384 for the second.

Compared with CATAGTGA, CATCCCAG is higher in “PBM E-score” value: -0.217 for the first, -0.192 for the second.

Compared with ATATTCCA, CTGCACCC is lower in “PBM E-score” value: 0.0484 for the first, 0.00118 for the second.

Compared with ATGACGGC, CGAGGAAA is lower in “PBM E-score” value: 0.123 for the first, 0.0788 for the second.

Going from CTATTTTC to GCGCTGAC, the “PBM E-score” value rises from 0.0457 to 0.0851.

First: GTCACCTA
Second: GTCAGTCA
The “PBM E-score” value of the first is lower: -0.286 for the first, -0.103 for the second.

Going from CTGTATAC to ACTTAATC, the “PBM E-score” value falls from -0.114 to -0.121.

First: ACGATTGC
Second: GGCATCAC
The “PBM E-score” value of the first is higher: 0.0419 for the first, 0.0292 for the second.

First: GGTATCAC
Second: GTACAGCA
The “PBM E-score” value of the first is higher: -0.115 for the first, -0.127 for the second.

Compared with ATACACAT, ACAGATAC is higher in “PBM E-score” value: -0.212 for the first, -0.00303 for the second.

Compared with AGGTTTTC, AGCCTAGG is lower in “PBM E-score” value: -0.0425 for the first, -0.138 for the second.

Compared with AATTCGGT, ACCTTAAA is lower in “PBM E-score” value: 0.185 for the first, -0.022 for the second.

Going from GACGGTTA to GAATAATA, the “PBM E-score” value rises from -0.00588 to 0.104.

Going from ACAAGGAT to CTACGTAC, the “PBM E-score” value rises from -0.204 to -0.091.

Compared with ACGGAACC, CTGGTGAA is lower in “PBM E-score” value: 0.213 for the first, -0.198 for the second.

Compared with CATTATCG, ATCGGTCA is higher in “PBM E-score” value: -0.0764 for the first, 0.0639 for the second.

Compared with AAAGCGAC, ATAAAAAG is higher in “PBM E-score” value: 0.031 for the first, 0.093 for the second.

Compared with GGGAATAA, CCATCGCC is lower in “PBM E-score” value: 0.261 for the first, 0.075 for the second.

First: CACGGTGC
Second: ACGACCCG
The “PBM E-score” value of the first is lower: -0.115 for the first, -0.0338 for the second.

First: ACGGGGGA
Second: CCTATACA
The “PBM E-score” value of the first is higher: 0.0207 for the first, -0.267 for the second.

Compared with CGTCCCCA, GGATTTGA is higher in “PBM E-score” value: 0.0148 for the first, 0.107 for the second.

First: CTCTGCAC
Second: AAAGCACT
The “PBM E-score” value of the first is lower: -0.0702 for the first, 0.0134 for the second.

First: AATACGCC
Second: CCGCTATC
The “PBM E-score” value of the first is higher: 0.223 for the first, 0.217 for the second.

Going from CCCAAACC to CAATAATA, the “PBM E-score” value falls from 0.165 to 0.0542.

Compared with AAGTGGAA, CAGCCTTA is lower in “PBM E-score” value: -0.169 for the first, -0.181 for the second.

Going from CGAACCTC to ACTGGGCC, the “PBM E-score” value falls from 0.00904 to -0.0331.

First: AACGGTGC
Second: AGCACCGC
The “PBM E-score” value of the first is lower: -0.0596 for the first, 0.121 for the second.

Compared with AGCTGAAG, TCATTCAA is higher in “PBM E-score” value: -0.171 for the first, -0.146 for the second.

Compared with GGAGTGAA, GTGTCGGA is higher in “PBM E-score” value: 0.193 for the first, 0.417 for the second.

Compared with TAGAAGCA, AGGTGTTG is higher in “PBM E-score” value: -0.355 for the first, -0.061 for the second.

Going from AACCATAA to ACCGCACC, the “PBM E-score” value rises from -0.102 to 0.285.

First: CTGAGGGA
Second: GCAGTTTA
The “PBM E-score” value of the first is lower: -0.205 for the first, -0.148 for the second.

Compared with GTACGCAA, CCCGGCAC is higher in “PBM E-score” value: -0.169 for the first, 0.088 for the second.

Compared with CCCAAGTA, CTAGCAGA is lower in “PBM E-score” value: -0.129 for the first, -0.195 for the second.

Going from AATCAAGG to GGGACCTA, the “PBM E-score” value falls from 0.104 to 0.0298.

Compared with CGCACACG, AGAGTCTA is lower in “PBM E-score” value: 0.124 for the first, -0.358 for the second.

Going from ATTTAAAA to GTCAAGAA, the “PBM E-score” value falls from 0.114 to -0.137.

First: ATTGTGAC
Second: AGGCGCAT
The “PBM E-score” value of the first is lower: -0.137 for the first, 0.0965 for the second.

Compared with AGTCACGG, CTAATTCC is higher in “PBM E-score” value: 0.188 for the first, 0.277 for the second.

Compared with CACACGCC, GTCTTCTA is lower in “PBM E-score” value: 0.107 for the first, -0.114 for the second.

First: CGCTTTGC
Second: AGAAAGGG
The “PBM E-score” value of the first is higher: 0.122 for the first, -0.247 for the second.

First: GGCTAATA
Second: CAAGCGCG
The “PBM E-score” value of the first is higher: 0.113 for the first, 0.0856 for the second.

Going from AGGAGGTG to ACAAGCTG, the “PBM E-score” value rises from -0.208 to -0.177.

First: CGAGATCC
Second: CACCTAAA
The “PBM E-score” value of the first is higher: 0.305 for the first, -0.107 for the second.

Compared with AAGCAGTA, CATGGTCA is higher in “PBM E-score” value: -0.234 for the first, -0.0944 for the second.

Going from GCGTAGCC to ATCGAGAA, the “PBM E-score” value falls from -0.101 to -0.166.

Compared with ACAATGGC, GTACTGAA is higher in “PBM E-score” value: -0.074 for the first, -0.0131 for the second.

Compared with CTGGCCGA, CTGGCAGC is lower in “PBM E-score” value: 0.0576 for the first, -0.145 for the second.

Going from ACGCGTCC to AGCATTTA, the “PBM E-score” value falls from -0.0394 to -0.0809.

Compared with CGGATCCC, AGACTTGC is lower in “PBM E-score” value: 0.402 for the first, -0.117 for the second.

Going from ACGTCCCG to GATTACCC, the “PBM E-score” value falls from 0.164 to 0.162.

First: GATAGGCC
Second: CAAAATCG
The “PBM E-score” value of the first is lower: -0.0314 for the first, 0.00929 for the second.

First: GACCCGAA
Second: CCTAAGGC
The “PBM E-score” value of the first is higher: 0.133 for the first, -0.203 for the second.

Going from ACCATGCA to CAATCATG, the “PBM E-score” value falls from -0.029 to -0.214.

First: GATTCGCA
Second: GCGAGACA
The “PBM E-score” value of the first is higher: 0.129 for the first, -0.246 for the second.

Compared with CAATCATC, AGTTCTGG is lower in “PBM E-score” value: -0.00262 for the first, -0.152 for the second.

Going from ACCGCCAT to AAGCCCAC, the “PBM E-score” value falls from 0.0274 to -0.144.

First: CTTCGCCA
Second: AGTTCACG
The “PBM E-score” value of the first is higher: -0.0258 for the first, -0.188 for the second.

Compared with CCTGGCGC, CCGACAAA is higher in “PBM E-score” value: 0.0819 for the first, 0.296 for the second.

Compared with CCGAGAAG, CAACTCCC is lower in “PBM E-score” value: 0.226 for the first, 0.154 for the second.

Compared with CGCTTCGC, AAGTTCAC is lower in “PBM E-score” value: 0.135 for the first, -0.0335 for the second.

Compared with CGGTGAGC, ATAGTGTC is lower in “PBM E-score” value: 0.171 for the first, -0.139 for the second.

Going from CGCAAGTA to AACCGAAC, the “PBM E-score” value rises from -0.0314 to -0.0183.
